Results reported in the supplement of paper PMC7826260.
Some of the results follow. The data describe in vitro nicking of single-stranded DNA by Rep domains for 1 h at 37 °C with 3 µM enzyme; only the middle of the 90-letter strands is printed. Values are log2 of uncut reads against the no-enzyme pool; uncut sequences lie near 0, cut ones below; no hit call is given. Counts are relative to all reads; values above 0 arise when much of the pool is cut.

How the values were obtained:
Assay in all cases: uncleaved DNA left, log2 of reads against the no-enzyme library (log2 ratio); higher = less cleavage (more negative = more Rep cleavage of the k-mer); sequences stand for … in CTCGTCCG…ACCGGAGA
[1] = test system: T1, Rep nickase domain of Muscovy duck circovirus
T1 sequence (residues 1-111 of Rep, tag left off): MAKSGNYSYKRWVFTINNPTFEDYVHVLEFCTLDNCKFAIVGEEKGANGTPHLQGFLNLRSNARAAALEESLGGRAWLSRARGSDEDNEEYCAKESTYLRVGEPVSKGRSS
Experimental: (§1)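 A pool of 90-nt single-stranded DNAs with seven random bases just before the constant AC of the nick site (name = the seven bases) was cut by 3 µM recombinant His6-SUMO-tagged Rep nickase domain (300 nM DNA, 50 mM HEPES pH 8.0, 50 mM NaCl, 1 mM MnCl2, 1 h, 37 °C, three replicates). Uncut DNA was amplified and sequenced.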

[2] = test system: T2, Rep nickase domain of banana bunchy top virus
T2 sequence (residues 1-94 of Rep, tag left off): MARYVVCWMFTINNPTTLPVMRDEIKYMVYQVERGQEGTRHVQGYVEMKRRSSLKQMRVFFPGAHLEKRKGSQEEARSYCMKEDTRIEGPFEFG
Experimental: as §1

[3] = test system: T3, Rep nickase domain of cabbage leaf curl virus
T3 sequence (residues 1-116 of Rep, tag left off): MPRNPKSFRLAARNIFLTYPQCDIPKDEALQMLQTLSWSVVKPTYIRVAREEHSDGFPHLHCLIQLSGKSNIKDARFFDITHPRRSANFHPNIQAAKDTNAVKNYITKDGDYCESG
Experimental: as §1

[4] = test system: T4, Rep nickase domain of chickpea chlorotic dwarf virus
T4 sequence (residues 1-124 of Rep, tag left off): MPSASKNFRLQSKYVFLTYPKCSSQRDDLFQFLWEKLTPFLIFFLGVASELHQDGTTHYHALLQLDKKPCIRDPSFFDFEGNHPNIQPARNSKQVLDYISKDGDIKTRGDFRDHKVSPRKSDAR
Experimental: as §1

[5] = test system: T5, Rep nickase domain of faba bean necrotic yellows virus
T5 sequence (residues 1-98 of Rep, tag left off): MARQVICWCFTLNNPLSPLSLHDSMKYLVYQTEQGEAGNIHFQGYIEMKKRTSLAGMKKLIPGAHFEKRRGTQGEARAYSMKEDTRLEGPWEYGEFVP
Experimental: as §1

[6] = test system: T6, Rep nickase domain of maize striate mosaic virus
T6 sequence (residues 1-117 of Rep, tag left off): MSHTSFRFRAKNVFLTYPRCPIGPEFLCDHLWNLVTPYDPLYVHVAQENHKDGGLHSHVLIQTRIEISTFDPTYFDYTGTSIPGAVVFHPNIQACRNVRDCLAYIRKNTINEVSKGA
Experimental: as §1

[7] = test system: T7, Rep nickase domain of porcine circovirus 2
T7 sequence (residues 2-116 of Rep, tag left off): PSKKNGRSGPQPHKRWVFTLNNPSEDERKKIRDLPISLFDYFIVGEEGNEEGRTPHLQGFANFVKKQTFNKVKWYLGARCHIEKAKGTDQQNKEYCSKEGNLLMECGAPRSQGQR
Experimental: as §1

[8] = test system: T8, Rep nickase domain of tomato golden mosaic virus
T8 sequence (residues 1-124 of Rep, tag left off): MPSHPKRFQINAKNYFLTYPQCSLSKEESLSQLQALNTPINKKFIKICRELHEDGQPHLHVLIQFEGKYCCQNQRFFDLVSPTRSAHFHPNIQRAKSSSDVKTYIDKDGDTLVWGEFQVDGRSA
Experimental: as §1

[9] = test system: T9, Rep nickase domain of tomato yellow leaf curl virus
T9 sequence (residues 1-136 of Rep, tag left off): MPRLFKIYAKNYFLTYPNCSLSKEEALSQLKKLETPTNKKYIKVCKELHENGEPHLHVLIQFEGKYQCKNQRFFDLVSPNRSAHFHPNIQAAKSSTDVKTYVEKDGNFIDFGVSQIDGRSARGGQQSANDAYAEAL
Experimental: as §1

[10] = test system: T10, Rep nickase domain of wheat dwarf virus
T10 sequence (residues 1-137 of Rep, tag left off): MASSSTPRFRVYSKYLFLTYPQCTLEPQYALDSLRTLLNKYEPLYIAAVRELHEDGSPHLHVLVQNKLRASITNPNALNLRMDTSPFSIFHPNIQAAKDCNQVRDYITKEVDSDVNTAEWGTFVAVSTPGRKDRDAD
Experimental: as §1

| Sequence | uncleaved DNA left (log2) [1] | uncleaved DNA left (log2) [2] | uncleaved DNA left (log2) [3] | uncleaved DNA left (log2) [4] | uncleaved DNA left (log2) [5] | uncleaved DNA left (log2) [6] | uncleaved DNA left (log2) [7] | uncleaved DNA left (log2) [8] | uncleaved DNA left (log2) [9] | uncleaved DNA left (log2) [10] |
| --- | --- | --- | --- | --- | --- | --- | --- | --- | --- | --- |
| GAGATGC | 0.0201 | 0.071 | 0.143 | 0.649 | 0.108 | -0.193 | 0.188 | 0.00979 | 0.0274 | 0.0861 |
| CTGGTGA | 0.0447 | 0.0241 | -0.25 | -0.403 | 0.0534 | -0.826 | -0.0691 | -0.0898 | -0.066 | -0.106 |
| GAGGCCT | 0.0606 | 0.186 | 0.683 | 0.74 | 0.142 | 1.82 | -0.805 | 0.188 | 0.13 | 0.207 |
| CACGGTG | -0.0657 | -0.0579 | -0.55 | -0.628 | 0.058 | -0.835 | 0.0767 | 0.159 | 0.188 | -0.0496 |
| TAAAAGA | 0.0562 | 0.0599 | -0.454 | -2.2 | 0.127 | -1.01 | 0.122 | 0.0209 | -0.00648 | -0.058 |
| ATTAGCA | 0.0519 | 0.0409 | -0.433 | -0.981 | -0.0273 | -1.19 | -0.104 | 0.0235 | 0.0664 | -0.0377 |
| CCTGGCT | -0.00301 | -0.163 | -0.354 | -0.837 | 0.0586 | -0.842 | -0.0107 | -0.0828 | -0.156 | -0.21 |
| GGAGAGT | 0.184 | 0.191 | 0.928 | 1.81 | 0.0822 | 2.13 | 0.286 | 0.085 | 0.214 | 0.218 |
| TCCCATC | -0.00683 | -0.00221 | 0.0843 | -0.108 | -0.0231 | -0.558 | 0.0289 | 0.0714 | 0.151 | 0.107 |
| AGCCTGT | 0.147 | -0.0325 | 0.221 | 0.731 | 0.0167 | 1.62 | 0.098 | 0.126 | -0.104 | 0.134 |
| TACATGA | -0.0284 | 0.0146 | -0.168 | -0.65 | -0.013 | -0.846 | 0.0754 | -0.0508 | -0.0728 | -0.0009 |
| TGGTTTG | 0.0246 | -0.0316 | 0.00845 | 0.945 | 0.0663 | 0.568 | 0.0233 | 0.0719 | 0.00546 | -0.0203 |
| TCCACCT | -0.124 | -0.134 | -0.101 | -2.32 | -0.0865 | -0.475 | -0.595 | -0.24 | -0.0305 | -0.162 |
| CCAGGAT | 0.156 | 0.124 | 0.254 | 1.6 | -0.132 | 1.9 | 0.0959 | 0.0924 | -0.117 | -0.066 |
| GGGTTCC | 0.0418 | 0.15 | 0.722 | 1.5 | -0.0453 | 2.03 | 0.162 | 0.0246 | 0.147 | 0.119 |
